# Assay results: PubChem BioAssay AID1963576 (National Center for Advancing Translational Sciences (NCATS), 2024)
# Among all 46,000 compounds or so, about 60 (0.1%) were called active. Not shown: some 3% with an inconclusive outcome. Calls come from the whole dose curve; as a rule, active = well fitted inhibition curve with a large enough effect; inconclusive = small, poorly fitted or top-dose-only effect; inactive = no such curve, though single readings can be large or run the other way. The list shows a part of the results.
# Test: Primary qHTS assay for Inhibitors of ovarian cancer metastasis using an organotypic tumor microenvironment (TME) model.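 For activity change, negative = inhibition: plate controls were DMSO wells for no effect and tomatine positive control wells for full effect.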 Note: nearly all actives have a fitted effect of over 65% in size.
# Conditions: SKOV3ip1-GFP adhesion/invasion on 3D omental model, fluorescence; series mostly up to 45.8 µM; activity change, negative = inhibition: at the top concentration
# Procedure, shortened: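 qHTS, 4-pt dose (0.36-46 umol/L); SKOV3ip1-GFP, 1,200 cells/well, no FBS; primary omental fibroblast/mesothelial co-culture 48 h pre-grown; 2 h RT + 16 h 37 C; PBS wash, 4% PFA; GFP count 488/509 nm.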
SMILES,"activity change, negative = inhibition",outcome
CCn1c(CN2CCOCC2)nc2cc(NC(=O)c3ccccc3[N+](=O)[O-])ccc21,inactive: -0.163%,–
CCC1CN(C(=O)N2CCC(C(=O)NCCc3cc(OC)ccc3OC)CC2)c2ccccc2O1 (stereo unspecified),inactive: -5.13%,–
CCN(CC)S(=O)(=O)c1ccc2c(c1)N(CC(=O)N1CCN(c3cccc(Cl)c3)CC1)C(=O)CO2,inactive: -3.27%,–
CN(C)C1(CNC(=O)COc2ccc([N+](=O)[O-])cc2)CCCCC1,inactive: 11.6%,–
Cc1cc(Cl)ccc1NC(=O)Cn1nc(C)c2c(C)n(-c3ccccc3)nc2c1=O,inactive: 15.6%,–
Cc1ccc(Cl)cc1Nc1nn2c(=O)c3ccc(C(=O)Nc4ccc(F)cc4)cc3nc2s1,inactive: -8.38%,–
CC(=O)Nc1cc(-c2nc3cc(Cl)ccc3o2)ccc1C,inactive: -10.7%,–
CC1CCN(C(=O)Cn2c(=O)n(CCCCCC(=O)NCc3ccccc3Cl)c(=O)c3sccc32)CC1,inactive: -5.8%,–
CCOC(=O)c1ccccc1NC(=O)N1CCN(Cc2cc(=O)n3nc(-c4ccccc4)sc3n2)CC1,inactive: 8.28%,–
Cc1[nH]n(-c2ccccc2)c(=O)c1C(c1cc(Cl)ccc1O)c1c(C)[nH]n(-c2ccccc2)c1=O,inactive: 0.732%,–
O=C(NCc1cccs1)c1nn(-c2ccccc2Cl)nc1CO,–,inactive
COCCCNc1nc2c(S(=O)(=O)c3ccccc3)nnn2c2ccc(Cl)cc12,inactive: 1.06%,–
CC1=C(C(=O)Nc2ccccc2)C(c2ccccc2C)n2nc(SCC(=O)c3ccc(C)cc3)nc2N1 (stereo unspecified),inactive: -2.71%,–
CCc1ccc(NC(=O)CCS(=O)(=O)c2cc3c(cc2Cl)NC(=O)CO3)cc1,inactive: 19.1%,–
CCN(c1cccc(C)c1)S(=O)(=O)c1ccc(-n2cccn2)cc1,–,inactive
COC(=O)c1c(-c2cccs2)csc1NC(=O)c1ccc(Br)cc1,inactive: 6.05%,–
COC(=O)c1c(-c2cccs2)csc1NC(=O)c1cccc(Cl)c1,inactive: -14.5%,–
Cc1cccc(NC(=O)CSc2nc(-c3cccs3)cc(C(F)(F)F)c2C#N)c1C,inactive: -4.38%,–
CCOc1ccc(-c2cc(CCCC(=O)NCCc3ccc(Cl)cc3)no2)cc1,inactive: 4%,–
Cc1cccc(-c2c3c(=O)n(C)c(=O)n(C)c3c3c(C)nc4ccccc4n23)c1,inactive: 8.15%,–
Cc1ccc(C(=O)N2CCc3cc(CNC(=O)CSc4ccccc4)ccc32)cc1,inactive: -3.73%,–
Cc1ccc(-c2cc(C(=O)NCc3cnn(C)c3C)c3ccccc3n2)cc1C,inactive: -5.75%,–
CCN(c1ccccc1)S(=O)(=O)c1cc(Br)cc2c1N(C(=O)C1CC1)CC2,inactive: 15.4%,–

SMILES,"activity change, negative = inhibition",outcome
CCCNC(=O)C1=CC(c2ccc3c(c2)OCO3)=NS(=O)(=O)N1C,inactive: -7.9%,–
COc1cc(OC)c(OC)cc1CN1CCc2nc(Nc3ccc4c(c3)OCCO4)ncc2C1,inactive: 5.31%,–
COc1ccc(CNC(=O)C(=O)Nc2c3c(nn2-c2ccccc2)CSC3)cc1,inactive: -4.49%,–
CC=C1NC(=O)[C@H]2CSSCCC=C[C@H](CC(=O)N[C@H](C(C)C)C(=O)N2)OC(=O)[C@H](C(C)C)NC1=O,inactive: -15.5%,–
Cc1c(C(=O)N2CCCCC2)c(S(=O)(=O)NCc2ccc(N(C)C)cc2)c(C)n1C,inactive: -8.7%,–
Cc1ccc(-c2cc(N)n(-c3ccc(C)cc3)n2)cc1,inactive: -3.09%,–
Cc1nn2c(-c3ccco3)ccnc2c1-c1ccc(Br)cc1,–,inactive
CCOc1ccc(C(=O)c2cn(CC(=O)Nc3cccc(OC)c3)c3cc4c(cc3c2=O)OCCO4)cc1,inactive: 10.8%,–
COc1ccc(N2CCN(C(CNC(=O)C(=O)NCc3cccnc3)c3cccnc3)CC2)cc1 (stereo unspecified),inactive: 2.77%,–
Cc1ccccc1CNC(=O)Cc1ccc(NC(=O)N2CCCCc3ccccc32)cc1,inactive: 1.16%,–
Cn1c(=O)c2c(nc(N3CCOCC3)n2Cc2cccc(Br)c2)n(C)c1=O,inactive: -0.708%,–
Cc1[nH]n2c(=O)cc(-c3ccc(Cl)cc3)nc2c1-c1ccccc1,inactive: 0.766%,–
Cc1ccc(C2Nc3cc(C)c(C)cc3-n3c(-c4ccccc4)c4c(=O)n(C)c(=O)n(C)c4c32)o1 (stereo unspecified),–,inactive
Cc1cccc(N2CCN(C(=O)C3CCN(C(=O)c4cc5sccc5n4C)CC3)CC2)c1C,inactive: 1.7%,–
Cc1ccc(NC(=O)CSc2nc3c([nH]c4ccccc43)c(=O)n2-c2ccccc2)cc1Cl,–,inactive
CCOc1ccc(NC(=O)C2CCN(c3nnc(C)c4c(C)n(-c5ccccc5)nc34)CC2)cc1,inactive: 8.6%,–
CCOC(=O)c1c(C)oc2nc(C)nc(N3CCN(c4ccccc4F)CC3)c12,inactive: -6.17%,–
Cc1ccc(-c2[nH]c3c(c2-c2c(-n4cccc4)n(C)c(=O)[nH]c2=O)c(=O)[nH]c(=O)n3C)cc1,inactive: -5.96%,–
COc1ccc(CNC(=O)c2ccc3nc(CCc4ccccc4)oc3c2)cc1,inactive: -12%,–
CSc1ccc(C2CC(=O)Oc3c2c(=O)n(C)c2ccccc32)cc1 (stereo unspecified),inactive: 1.88%,–
Cc1ccc(/C=C/c2onc(C)c2S(=O)(=O)N2CCC(C(=O)N3CCOc4ccc(C)cc43)CC2)cc1,inactive: 9.36%,–
Cc1c(C(=O)N2CCCC2)oc2c1-c1nn(CC(=O)NCc3ccccc3Br)cc1CC2,inactive: -9.99%,–
COc1ccc(C)cc1NC(=O)CCc1c(C)nn(-c2ccc(N3CCCCC3)nn2)c1C,–,inactive
